# Measurements from the supplement of paper PMC3334620.
# Whole data set: some 33,000 sequences, median “E-score (-0.5 to 0.5)” near -0.016, cut for the highest 2% near 0.32. The list shows a part of the results.
# Molecular target: T1, Stp1 (UniProt B3LFK1)
# T1 sequence: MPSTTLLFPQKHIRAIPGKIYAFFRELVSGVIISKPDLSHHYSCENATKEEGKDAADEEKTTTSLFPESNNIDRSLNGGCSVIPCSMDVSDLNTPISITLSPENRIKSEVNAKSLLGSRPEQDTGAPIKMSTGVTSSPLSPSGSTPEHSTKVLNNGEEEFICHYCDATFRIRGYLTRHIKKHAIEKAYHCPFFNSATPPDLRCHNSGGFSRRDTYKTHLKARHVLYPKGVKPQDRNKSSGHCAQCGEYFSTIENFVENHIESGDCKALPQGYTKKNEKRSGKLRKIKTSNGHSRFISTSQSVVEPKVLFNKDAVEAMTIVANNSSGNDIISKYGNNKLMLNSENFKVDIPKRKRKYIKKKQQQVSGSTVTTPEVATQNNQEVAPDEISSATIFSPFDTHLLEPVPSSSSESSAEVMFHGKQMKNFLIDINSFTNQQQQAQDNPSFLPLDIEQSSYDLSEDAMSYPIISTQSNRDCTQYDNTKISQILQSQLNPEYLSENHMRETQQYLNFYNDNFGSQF
# Test: PBM E-score (8-mer binding enrichment) (E-score (-0.5 to 0.5)); higher = stronger / more preferred TF binding; most listed sequences are background and not binding sites
# Conditions: protein concentration: 200 nM; construct: GST-full length
# Method in brief: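 Full-length yeast transcription factors or their DNA-binding domains, GST-tagged and expressed with PURExpress, were applied at about 100-200 nM to universal all-10-mer Agilent arrays. These arrays had been made double-stranded by primer extension on fresh or once-stripped slides. Detection used fluorescent anti-GST, normalisation used masliner, and E-scores for ungapped eight-base words pooled with reverse complements came from the Universal PBM Analysis Suite.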
row,Sequence,PBM E-score
1,AGAGTAAA,0.0654
2,GCGAGCTA,-0.0831
3,ACAGTCAA,-0.0726
4,CATTGTCG,0.0525
5,AACACAAA,0.0739
6,TCAAAGCA,0.0184
7,ACGTTACT,-0.00204
8,CGTGTCAG,0.119
9,AAATTCCT,0.0162
10,ATAGTTCG,0.0223
11,CTGTGAAA,0.182
12,ACGCACGA,0.237
13,CAGGCTAG,-0.334
14,GAACACTA,-0.0215
15,ATTGTTTA,0.111
16,AGGTATTG,-0.0693
17,ACGACCTC,0.0267
18,CATTGTAG,0.133
19,CTTGTTCC,-0.135
20,GAAACTAC,0.145
21,CCTCCAGC,-0.217
22,ATATACAT,0.107
23,GAATATCA,-0.0305
24,CTGGACGC,-0.111
25,CGTGAAGA,0.0737

row,Sequence,PBM E-score
1,GGACCGGA,-0.234
2,AGGACCGG,-0.406
3,ATGTCTCC,-0.165
4,ACCGGGAG,-0.355
5,TAACACTA,0.244
6,ACCAAAAC,0.081
7,GCTCTAGA,-0.0603
8,ATGGACGA,0.137
9,ATGTGGAC,0.0639
10,CTACTTGA,-0.0696
11,CAGATCCC,-0.135
12,CACAACCG,0.0612
13,ATAAGATC,0.00385
14,GGCAGCCA,-0.0156
15,CCTTCTTA,-0.0218
16,CATTCTTA,0.0101
17,AGGAACTG,-0.00391
18,ACCGCCAA,-0.276
19,ACCGGCGC,0.3
20,ATGTTGTG,0.0528
21,GCGTAGAC,-0.0508
22,CTGTTACC,-0.131
23,TATTCCAA,0.178
24,GTGGCGTA,0.0488
25,TCGACCAA,-0.0251

row,Sequence,PBM E-score
1,TGAGATAA,0.0624
2,ACGACAGA,-0.0742
3,GACGAGCA,-0.00677
4,ACTCCGCG,0.068
5,GTGGAATA,-0.0142
6,CTCTGATC,-0.0439
7,ATCCAAGA,-0.0212
8,CATGCTGG,-0.252
9,ACTTCGAC,0.183
10,CGCCAAAA,0.0598
11,CCTCTGAA,-0.301
12,GGTATGAC,-0.0709
13,ATATGTTC,0.0302
14,CCTCGTCC,-0.215
15,CCGTGCTC,0.261
16,AAGCCGAT,0.135
17,GGCCCAGA,-0.283
18,TTACAAAA,0.167
19,ATAATCAC,0.159
20,CCAGTGCA,-0.149
21,CCGAGCTC,0.00119
22,AGCAACAT,0.0205
23,ACTACCCA,-0.259
24,CCTGCGGC,0.331
25,AAACCACC,-0.0159

row,Sequence,PBM E-score
1,AGAAGATC,0.0528
2,CCCCGGGA,-0.256
3,GCCCCACC,-0.0669
4,AGTGGCCC,-0.202
5,CAATCCGA,-0.033
6,AGCCTAAC,0.0884
7,GACCTGGA,-0.208
8,AACCTCCT,-0.24
9,AAAGAATG,0.163
10,GGACTAAC,-0.266
11,CAGTCGAG,-0.205
12,ACATAAAT,0.206
13,AGGTCATA,-0.146
14,AAGACCGG,-0.173
15,ACATATGA,0.0631
16,GTCGTCCA,-0.0955
17,AGGGTTAG,-0.181
18,CGGACTCC,-0.0441
19,AACCTTGC,-0.0117
20,CTTTCAAC,0.0409
21,CCTCAGGC,-0.0779
22,CGATAAAA,0.129
23,ACCCTTAC,-0.0496
24,CAACTGCA,0.00074
25,AAATACAC,0.0347

row,Sequence,PBM E-score
1,GGGCGACC,0.004
2,GCGGAACA,0.114
3,CGATATAG,0.0421
4,CACGTCTG,0.199
5,CAGCTAGG,-0.288
6,ACGTCACA,-0.0409
7,CGGTGAAC,0.167
8,CTTGAGGA,-0.174
9,CGGGACCC,-0.172
10,ATTATGAC,0.0941
11,ACCCGTCA,-0.247
12,AGTGCAAA,0.101
13,CTTTGTTA,0.167
14,CACGCTCG,-0.2
15,AGCGCCCC,0.0659
16,CAACATAA,0.233
17,CAAATCGG,0.0218
18,CAGGTGCA,-0.157
19,GTGAGCAC,-0.066
20,AATGGGAC,-0.107
21,CACGATCG,0.0593
22,TATATATA,0.345
23,ATGCATGG,0.143
24,AGGGAATA,0.129
25,CTCGTCTC,-0.0621

row,Sequence,PBM E-score
1,CGTTATTA,0.0232
2,ACAAGGAC,-0.141
3,ACGTACGC,-0.023
4,CAAGCATC,-0.0293
5,ATCTGGTA,0.183
6,GTAAGTTA,0.0449
7,AGACCTCC,-0.353
8,CCGACATC,-0.0143
9,ATGTTCAC,-0.00209
10,AGGCGCTG,0.311
11,CGTTTGTA,0.189
12,CCTACGGA,-0.13
13,GCCGTTTA,0.443
14,GAAGTGGC,0.151
15,CTCTTCAG,0.00462
16,AGAACAGA,-0.0692
17,CTTTTGAC,0.0177
18,CGACCAAG,-0.129
19,TGGAAAAA,0.102
20,AGTACTAG,0.132
21,AGTGCGGG,-0.0896
22,CATGCTCC,-0.248
23,CATGGGGA,-0.148
24,ATTCCAGA,0.107
25,GATGTCAA,-0.156

row,Sequence,PBM E-score
1,TATCCGCA,0.313
2,GAGAATCA,-0.0603
3,CATTTTTA,0.0213
4,AGCTGCTA,-0.205
5,CACTAATC,0.0861
6,GCTACGAC,0.0698
7,CACTTCTG,-0.0421
8,AATGAATC,0.0283
9,TAGAGCCA,0.0299
10,CATGAGTC,-0.198
11,GCTACACA,0.1
12,CTGGAAAC,0.00538
13,ACCGGCAG,-0.121
14,AACGACTC,-0.289
15,CAGCGCGC,-0.00184
16,TGCTTTAA,0.0682
17,GCGGCCCA,0.287
18,GACGTTCA,-0.114
19,CTATTCCC,-0.17
20,ATTGGGAA,-0.189
21,GCCCGTCA,-0.259
22,GGAAAACC,-0.143
23,CTACATTC,-0.149
24,CATCCATC,-0.197
25,GCGTCGAC,0.18

row,Sequence,PBM E-score
1,GTTCTTGA,-0.0583
2,ATTAGTAA,0.237
3,ATCGTTCG,0.0636
4,GAGCCCTA,0.0308
5,CGTATACA,0.182
6,CACGAATC,0.0534
7,CCGAGTGC,0.173
8,CCCTTACA,0.0253
9,CATGTTCA,-0.0692
10,AATCCTGA,-0.0136
11,ACATATCT,0.126
12,CGCTGTTA,-0.119
13,AATGTGTG,-0.0323
14,ACTTAGCC,0.113
15,CCTTGACA,0.0221
16,CTTTTTGA,-0.00282
17,AACCCTGG,-0.338
18,AGTGGGTG,-0.0322
19,ATTGTGTA,0.124
20,AGAGTCAG,-0.0573
21,AGCAGGAG,-0.235
22,CCGACTTA,0.0516
23,AACAAAGG,-0.104
24,CCACCACA,-0.182
25,GTGTCGAA,-0.107

row,Sequence,PBM E-score
1,AGATGATA,0.0699
2,AACCTAAA,0.163
3,AGGTACGA,-0.13
4,GATGAATA,0.0738
5,GAAGCCAC,0.0443
6,AAACAGCT,-0.0393
7,GAAGCAGA,-0.0929
8,CATTGCCG,0.358
9,AGTAGACA,0.0181
10,CCCGTCAA,-0.195
11,CACACTTC,0.0127
12,TCAGGGGA,-0.256
13,AAATCTCG,0.0684
14,GAACCCTA,0.00671
15,AGAGTTTC,-0.206
16,CAGGAGTA,0.109
17,CGGATTTC,0.0502
18,TCTGTCCA,0.0131
19,AGTCCCAT,-0.174
